From paper PMC10711660, “An extended Tudor domain within Vreteno interconnects Gtsf1L and Ago3 for piRNA biogenesis in Bombyx mori” (The EMBO Journal, 2023)
These are yes or no findings as the source states them, for the method shown. Binding seen in cells or lysates may run through a third protein. Some binding calls cover weakened binding; strength is not graded here. Sequences can lack the tags named with a protein.

Tests used:
[1] = biological target: T1, HA‐BmGtsf1L‐eGFP (Bombyx mori); assay: co-IP; GFP-Trap magnetic agarose or control beads, lysate of BmN4 cells stably expressing HA-BmGtsf1L-eGFP; also after dsRNA knock-down of luciferase, BmAgo3 or BmVreteno; IP-150 buffer, overnight 4°C; Western blot
T1 sequence: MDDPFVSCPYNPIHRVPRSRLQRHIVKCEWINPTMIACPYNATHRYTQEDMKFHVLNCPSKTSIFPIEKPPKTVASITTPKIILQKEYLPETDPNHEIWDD

[2] = biological target: T2, full length (FL) BmGtsf1L‐eGFP (Bombyx mori); assay: co-IP; GFP-IP on lysates of BmN4 cells co-transfected with BmGtsf1L-eGFP and HA-BmVreteno full length, truncation variants or point mutants; HA-LacZ as control; Western blot
T2 sequence: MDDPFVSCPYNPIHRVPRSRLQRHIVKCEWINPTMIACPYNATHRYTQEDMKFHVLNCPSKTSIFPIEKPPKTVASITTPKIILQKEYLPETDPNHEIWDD

[3] = biological target: T3, HA‐tagged BmGtsf1L (Bombyx mori); assay: co-IP; anti-HA magnetic beads, lysate of BmN4 cells transiently transfected with HA-BmGtsf1L (with FLAG-tagged partners or alone); IP-150 buffer (150 mM KOAc, 0.1% Igepal), overnight 4°C; with or without RNase A/T1; Western blot
T3 sequence: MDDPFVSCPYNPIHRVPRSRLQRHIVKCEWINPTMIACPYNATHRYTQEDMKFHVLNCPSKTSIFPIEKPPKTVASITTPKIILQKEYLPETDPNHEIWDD

B1: endogenous Siwi (protein, UniProt A8D8P8 1-899)
chain: MSEPRGRGRARGRAGRGGDGGGPAPRRPGEQAGPSQQSMPPGPRPQPPSGWGPQSSVPPVRAGVPTPTAQAGRASHRVTPTTHEHPGDIDVQQRMQKLELGPHSSGGGDASSVVGRGSRRGGGRVLPETISILRTRPEAVTSKKGTSGTPLDLLANYFTVETTPKWGLYQYHVDISPEEDSTGVRKALMRVHSKTLGGYLFDGTVLYTVNRLHPDPMELYSDRKTDNERMRILIKLTCEVSPGDYHYIQIFNIIIRKCFNLLKLQLMGRDYFDPEAKIDIPEFKLQIWPGYKTTINQYEDRLLLVTEIAHKVLRMDTVLQMLSEYAATKGNNYKKIFLEDVVGKIVMTDYNKRTYRVDDVAWNVSPKSTFKMRDENITYIEYYYKKYNLRIQDPGQPLLISRSKPREIRAGLPELIYLVPELCRQTGLSDEMRANFKLMRSLDVHTKIGPDKRIEKLNNFNRRFTSTPEVVEELATWSLKLSKELVKIKGRQLPPENIIQANNVKYPAGDTTEGWTRDMRSKHLLAIAQLNSWVVITPERQRRDTESFIDLIIKTGGGVGFRMRSPDLVVIRHDGPIEYANMCEEVIARKNPALILCVLARNYADRYEAIKKKCTVDRAVPTQVVCARNMSSKSAMSIATKVAIQINCKLGGSPWTVDIPLPSLMVVGYDVCHDTRSKEKSFGAFVATLDKQMTQYYSIVNAHTSGEELSSHMGFNIASAVKKFREKNGTYPARIFIYRDGVGDGQIPYVHSHEVAEIKKKLAEIYAGVEIKLAFIIVSKRINTRIFVQRGRSGENPRPGTVIDDVVTLPERYDFYLVSQNVREGTIAPTSYNVIEDTTGLNPDRIQRLTYKLTHLYFNCSSQVRVPSVCQYAHKLAFLAANSLHNQPHYSLNETLYFL
[1]
  binding: binds

B2: HA‐BmVreteno (L)‐FL (protein)
chain: MSNHSRPQRRREWDPMRDDFNEHTYDVQYADDNAGEQVQLDHTKLYIINIPRGLSEDGIRAAFSKHGKVLSARLSKNPNKRFAIVQFETASEAKLAMMKMNGSEPLNLKISIAHKTIRKTQHDNKDRNYSTSRNGHCSRDEASSISSKGWNMRNLDDVMNNDEIDEIDDMIHEDHDDNLDLELDMLTLKQLKIKEEQLMCKRRLLLRHAEKRQVAPHSSAGRSVLPDGRIVVRNNANETDSAEVEPSFAGAGSESLKTPGLERNASRQCVKCGAPADWYCSRCAITPYCSQTCQTRDWTERHKSVCHYLAPLKTAGGFEAEATSSKSVSNSTPMRSSHSPPTKQQRGEADETDNKAKNIQEPRQNYHRPSNSGPNKNIPGKNQDPRRPATSREAIEEETEERGARNPKPAEATKDKHHPMNPVTFQRRQLKSNPVVDAQPAPREQQQPAATRAPEASPTEQRESTRRTLVPDRCLIDSLSEGDVVLVSVELKASECCTKQGGYVCLSMHEKYESDYQKLCEDYVLDCEADSDEYKIITGDTFSYLSPEDGGWYRARALNTTMAALLDGSKVVYLRMNDKVKKLPAKYSGIPEFCCVLNADVEVGLNLKCSLLSKTPNGFKVTLENVETEANVGEGEITRWIPEVDYPPPVKNVPVQRSVEIPEVPRPEIKNKSRVILVDATDVQRVFVRPADTRSQKAFDNILQDVLLYGTTAEPLKEPPSKGQTVVSKYTDNLHYRALCKRTSVNKNKYLLEYIEYGNIEITQLNRLYPCPEHLSVTSLASLTSHVQLDTTVGELTPRALEYIETIKEEEMILTLSSGGDTAQSGAALVNLTLVKNNDNVNKRIEELCTPEWKKLELKGVDVIETERLMYGTALDYIELPAAPFDLQVLDEVGLDSGNISGCPTNSDYVRYVMTKLPARMREYCESEFGRQPYLPAAEELCIAQLPPSSEWHRAVVLEQILGPGGGTARVLFVDHGNVAEVPVSSLRKMLAEFVTDLPAVACQIVIEDFPKQATAEMLAKARRFMSGPDKARAAQLPVRGCDKQDVGIYAIRVPELLEAMTE
[2]
  binding: binds

B3: HA‐BmVreteno‐FL S744D (protein)
chain: MSNHSRPQRRREWDPMRDDFNEHTYDVQYADDNAGEQVQLDHTKLYIINIPRGLSEDGIRAAFSKHGKVLSARLSKNPNKRFAIVQFETASEAKLAMMKMNGSEPLNLKISIAHKTIRKTQHDNKDRNYSTSRNGHCSRDEASSISSKGWNMRNLDDVMNNDEIDEIDDMIHEDHDDNLDLELDMLTLKQLKIKEEQLMCKRRLLLRHAEKRQVAPHSSAGRSVLPDGRIVVRNNANETDSAEVEPSFAGAGSESLKTPGLERNASRQCVKCGAPADWYCSRCAITPYCSQTCQTRDWTERHKSVCHYLAPLKTAGGFEAEATSSKSVSNSTPMRSSHSPPTKQQRGEADETDNKAKNIQEPRQNYHRPSNSGPNKNIPGKNQDPRRPATSREAIEEETEERGARNPKPAEATKDKHHPMNPVTFQRRQLKSNPVVDAQPAPREQQQPAATRAPEASPTEQRESTRRTLVPDRCLIDSLSEGDVVLVSVELKASECCTKQGGYVCLSMHEKYESDYQKLCEDYVLDCEADSDEYKIITGDTFSYLSPEDGGWYRARALNTTMAALLDGSKVVYLRMNDKVKKLPAKYSGIPEFCCVLNADVEVGLNLKCSLLSKTPNGFKVTLENVETEANVGEGEITRWIPEVDYPPPVKNVPVQRSVEIPEVPRPEIKNKSRVILVDATDVQRVFVRPADTRSQKAFDNILQDVLLYGTTAEPLKEPPSKGQTVVSKYTDNLHYRALCKRTDVNKNKYLLEYIEYGNIEITQLNRLYPCPEHLSVTSLASLTSHVQLDTTVGELTPRALEYIETIKEEEMILTLSSGGDTAQSGAALVNLTLVKNNDNVNKRIEELCTPEWKKLELKGVDVIETERLMYGTALDYIELPAAPFDLQVLDEVGLDSGNISGCPTNSDYVRYVMTKLPARMREYCESEFGRQPYLPAAEELCIAQLPPSSEWHRAVVLEQILGPGGGTARVLFVDHGNVAEVPVSSLRKMLAEFVTDLPAVACQIVIEDFPKQATAEMLAKARRFMSGPDKARAAQLPVRGCDKQDVGIYAIRVPELLEAMTE
[2]
  binding: binds

B4: HA‐BmVreteno‐FL I762W (protein)
chain: MSNHSRPQRRREWDPMRDDFNEHTYDVQYADDNAGEQVQLDHTKLYIINIPRGLSEDGIRAAFSKHGKVLSARLSKNPNKRFAIVQFETASEAKLAMMKMNGSEPLNLKISIAHKTIRKTQHDNKDRNYSTSRNGHCSRDEASSISSKGWNMRNLDDVMNNDEIDEIDDMIHEDHDDNLDLELDMLTLKQLKIKEEQLMCKRRLLLRHAEKRQVAPHSSAGRSVLPDGRIVVRNNANETDSAEVEPSFAGAGSESLKTPGLERNASRQCVKCGAPADWYCSRCAITPYCSQTCQTRDWTERHKSVCHYLAPLKTAGGFEAEATSSKSVSNSTPMRSSHSPPTKQQRGEADETDNKAKNIQEPRQNYHRPSNSGPNKNIPGKNQDPRRPATSREAIEEETEERGARNPKPAEATKDKHHPMNPVTFQRRQLKSNPVVDAQPAPREQQQPAATRAPEASPTEQRESTRRTLVPDRCLIDSLSEGDVVLVSVELKASECCTKQGGYVCLSMHEKYESDYQKLCEDYVLDCEADSDEYKIITGDTFSYLSPEDGGWYRARALNTTMAALLDGSKVVYLRMNDKVKKLPAKYSGIPEFCCVLNADVEVGLNLKCSLLSKTPNGFKVTLENVETEANVGEGEITRWIPEVDYPPPVKNVPVQRSVEIPEVPRPEIKNKSRVILVDATDVQRVFVRPADTRSQKAFDNILQDVLLYGTTAEPLKEPPSKGQTVVSKYTDNLHYRALCKRTSVNKNKYLLEYIEYGNIEWTQLNRLYPCPEHLSVTSLASLTSHVQLDTTVGELTPRALEYIETIKEEEMILTLSSGGDTAQSGAALVNLTLVKNNDNVNKRIEELCTPEWKKLELKGVDVIETERLMYGTALDYIELPAAPFDLQVLDEVGLDSGNISGCPTNSDYVRYVMTKLPARMREYCESEFGRQPYLPAAEELCIAQLPPSSEWHRAVVLEQILGPGGGTARVLFVDHGNVAEVPVSSLRKMLAEFVTDLPAVACQIVIEDFPKQATAEMLAKARRFMSGPDKARAAQLPVRGCDKQDVGIYAIRVPELLEAMTE
[2]
  binding: binds

B5: FLAG‐tagged Siwi (protein, UniProt A8D8P8 1-899)
chain: MSEPRGRGRARGRAGRGGDGGGPAPRRPGEQAGPSQQSMPPGPRPQPPSGWGPQSSVPPVRAGVPTPTAQAGRASHRVTPTTHEHPGDIDVQQRMQKLELGPHSSGGGDASSVVGRGSRRGGGRVLPETISILRTRPEAVTSKKGTSGTPLDLLANYFTVETTPKWGLYQYHVDISPEEDSTGVRKALMRVHSKTLGGYLFDGTVLYTVNRLHPDPMELYSDRKTDNERMRILIKLTCEVSPGDYHYIQIFNIIIRKCFNLLKLQLMGRDYFDPEAKIDIPEFKLQIWPGYKTTINQYEDRLLLVTEIAHKVLRMDTVLQMLSEYAATKGNNYKKIFLEDVVGKIVMTDYNKRTYRVDDVAWNVSPKSTFKMRDENITYIEYYYKKYNLRIQDPGQPLLISRSKPREIRAGLPELIYLVPELCRQTGLSDEMRANFKLMRSLDVHTKIGPDKRIEKLNNFNRRFTSTPEVVEELATWSLKLSKELVKIKGRQLPPENIIQANNVKYPAGDTTEGWTRDMRSKHLLAIAQLNSWVVITPERQRRDTESFIDLIIKTGGGVGFRMRSPDLVVIRHDGPIEYANMCEEVIARKNPALILCVLARNYADRYEAIKKKCTVDRAVPTQVVCARNMSSKSAMSIATKVAIQINCKLGGSPWTVDIPLPSLMVVGYDVCHDTRSKEKSFGAFVATLDKQMTQYYSIVNAHTSGEELSSHMGFNIASAVKKFREKNGTYPARIFIYRDGVGDGQIPYVHSHEVAEIKKKLAEIYAGVEIKLAFIIVSKRINTRIFVQRGRSGENPRPGTVIDDVVTLPERYDFYLVSQNVREGTIAPTSYNVIEDTTGLNPDRIQRLTYKLTHLYFNCSSQVRVPSVCQYAHKLAFLAANSLHNQPHYSLNETLYFL
[3]
  binding: binds
